Assay results: paper PMC10348911
Results are given in words; binding and its absence hold for the method and conditions named. Binding seen in cells or lysates may run through a third protein. Some entries that bind do so weakly or less than the wild type. For some of these results: Sequences can lack the tags named with a protein. Values belong to the molecule of their own block, whether it stands above or below them.

Protein sequences, listed by entry. Tags and fused reporters are not part of them. Lines headed by an entry give the natural chain unless they say otherwise; changes in a name come on top.
UniProt P24385: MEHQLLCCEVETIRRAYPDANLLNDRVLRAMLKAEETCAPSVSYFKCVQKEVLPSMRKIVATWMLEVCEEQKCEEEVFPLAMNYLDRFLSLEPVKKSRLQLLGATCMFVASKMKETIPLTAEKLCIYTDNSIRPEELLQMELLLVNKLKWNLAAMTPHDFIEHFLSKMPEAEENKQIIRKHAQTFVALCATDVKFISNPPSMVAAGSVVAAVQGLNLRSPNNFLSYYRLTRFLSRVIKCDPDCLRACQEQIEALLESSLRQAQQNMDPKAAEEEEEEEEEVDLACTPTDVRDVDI
UniProt P30279: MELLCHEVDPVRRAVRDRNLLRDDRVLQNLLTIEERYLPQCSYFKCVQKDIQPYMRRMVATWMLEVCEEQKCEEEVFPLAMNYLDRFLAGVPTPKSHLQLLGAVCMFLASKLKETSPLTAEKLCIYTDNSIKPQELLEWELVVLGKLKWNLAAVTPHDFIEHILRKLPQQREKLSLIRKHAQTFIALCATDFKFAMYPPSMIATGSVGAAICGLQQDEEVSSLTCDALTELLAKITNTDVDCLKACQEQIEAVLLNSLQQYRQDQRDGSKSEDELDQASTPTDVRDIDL
UniProt P30281: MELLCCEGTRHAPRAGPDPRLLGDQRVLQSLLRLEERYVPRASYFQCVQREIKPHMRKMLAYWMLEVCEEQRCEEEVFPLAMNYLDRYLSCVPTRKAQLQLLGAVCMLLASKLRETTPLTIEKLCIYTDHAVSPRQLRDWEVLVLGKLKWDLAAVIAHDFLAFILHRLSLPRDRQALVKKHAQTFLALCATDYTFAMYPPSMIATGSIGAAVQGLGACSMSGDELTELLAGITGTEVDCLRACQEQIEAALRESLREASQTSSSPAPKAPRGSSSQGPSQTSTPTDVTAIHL

Assays:
[1] = target: T1, recombinant GST-USP13 protein (UniProt Q92995); assay: pull-down; GST-USP13 from E. coli BL21 (DE3) purified on Glutathione Sepharose beads; cyclin D1 expression vector transfected into HEK293T cells; only the target purified
T1 sequence: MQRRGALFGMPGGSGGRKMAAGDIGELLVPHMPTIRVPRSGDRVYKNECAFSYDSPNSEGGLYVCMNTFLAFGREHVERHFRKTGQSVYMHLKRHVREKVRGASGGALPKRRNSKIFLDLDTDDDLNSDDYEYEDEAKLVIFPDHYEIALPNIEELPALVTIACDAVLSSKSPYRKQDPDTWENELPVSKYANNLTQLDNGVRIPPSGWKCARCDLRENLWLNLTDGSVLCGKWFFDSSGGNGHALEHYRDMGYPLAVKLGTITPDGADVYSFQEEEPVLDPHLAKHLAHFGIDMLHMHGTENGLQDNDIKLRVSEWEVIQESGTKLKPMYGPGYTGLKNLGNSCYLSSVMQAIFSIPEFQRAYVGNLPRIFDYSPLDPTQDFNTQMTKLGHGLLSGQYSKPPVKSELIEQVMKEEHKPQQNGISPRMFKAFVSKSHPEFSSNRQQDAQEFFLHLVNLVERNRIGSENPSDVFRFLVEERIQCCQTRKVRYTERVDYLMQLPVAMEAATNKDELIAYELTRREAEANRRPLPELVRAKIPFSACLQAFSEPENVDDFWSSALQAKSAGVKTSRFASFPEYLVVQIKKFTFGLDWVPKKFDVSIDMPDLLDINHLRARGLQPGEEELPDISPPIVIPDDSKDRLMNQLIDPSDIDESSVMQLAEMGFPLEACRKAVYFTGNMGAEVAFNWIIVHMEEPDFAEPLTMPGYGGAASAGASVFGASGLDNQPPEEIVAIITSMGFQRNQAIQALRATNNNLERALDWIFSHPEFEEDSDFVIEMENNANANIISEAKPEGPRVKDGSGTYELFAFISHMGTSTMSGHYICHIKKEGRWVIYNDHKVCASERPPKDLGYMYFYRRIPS

[2] = target: T2, Flag-tagged USP13 (ubiquitin-specific protease 13), wild type (UniProt Q92995); assay: co-IP; exogenous Co-IP: HEK293T or GC cells transfected for 48 h; IP lysis buffer 50 mM Tris-HCl pH 8.0, 150 mM NaCl, 10 mM KCl, 1.5 mM MgCl2, 0.5% NP-40, 10% glycerol, 1 mM EDTA; anti-Flag or anti-Myc antibody, Protein A/G magnetic beads overnight at 4 °C; immunoblot
T2 sequence: T1 sequence

[3] = target: T3, USP13, endogenous (human (endogenous in HEK293T and GC cells)) (UniProt Q92995); assay: co-IP; endogenous IP from HEK293T and GC cells with anti-USP13 or anti-cyclin D1 antibody, Protein A/G magnetic beads overnight at 4 °C; immunoblot
T3 sequence: T1 sequence

[4] = target: Myc-tagged cyclin D1, wild type (UniProt P24385); assay: co-IP; exogenous Co-IP: HEK293T or GC cells transfected for 48 h; IP lysis buffer 50 mM Tris-HCl pH 8.0, 150 mM NaCl, 10 mM KCl, 1.5 mM MgCl2, 0.5% NP-40, 10% glycerol, 1 mM EDTA; anti-Flag or anti-Myc antibody, Protein A/G magnetic beads overnight at 4 °C; immunoblot
[5] = target: cyclin D1, endogenous (human (endogenous in HEK293T and GC cells)) (UniProt P24385); assay: co-IP; endogenous IP from HEK293T and GC cells with anti-USP13 or anti-cyclin D1 antibody, Protein A/G magnetic beads overnight at 4 °C; immunoblot

binding [1]: binds | binding [2]: binds
Molecule: Myc-tagged cyclin D1, wild type (from UniProt P24385 1-295)

binding [2]: binds
Molecule: cyclin D1 N-terminal domain (aa 1-153) deletion mutant (from UniProt P24385 1-153) (domain or fragment)

binding [3]: binds
Molecule: cyclin D1, endogenous (from UniProt P24385 1-295)

binding [3]: no binding
Molecule: cyclin D2, endogenous (from UniProt P30279 1-289)

binding [3]: no binding
Molecule: cyclin D3, endogenous (from UniProt P30281 1-292)

binding [4]: binds
B1: Flag-tagged USP13 truncated mutant containing the UBA domain (aa 625-863) (domain or fragment, UniProt Q92995 625-863)
chain: ELPDISPPIVIPDDSKDRLMNQLIDPSDIDESSVMQLAEMGFPLEACRKAVYFTGNMGAEVAFNWIIVHMEEPDFAEPLTMPGYGGAASAGASVFGASGLDNQPPEEIVAIITSMGFQRNQAIQALRATNNNLERALDWIFSHPEFEEDSDFVIEMENNANANIISEAKPEGPRVKDGSGTYELFAFISHMGTSTMSGHYICHIKKEGRWVIYNDHKVCASERPPKDLGYMYFYRRIPS

binding [4]: binds
B2: Flag-tagged USP13 (ubiquitin-specific protease 13), wild type (enzyme, UniProt Q92995 1-863)
chain: T1 sequence

binding [5]: binds
B3: USP13, endogenous (enzyme, UniProt Q92995 1-863)
chain: T1 sequence

binding [4]: no binding
B4: Flag-tagged USP13 truncated mutant with the UBA domain deleted (domain or fragment, UniProt Q92995 1-624)
chain: MQRRGALFGMPGGSGGRKMAAGDIGELLVPHMPTIRVPRSGDRVYKNECAFSYDSPNSEGGLYVCMNTFLAFGREHVERHFRKTGQSVYMHLKRHVREKVRGASGGALPKRRNSKIFLDLDTDDDLNSDDYEYEDEAKLVIFPDHYEIALPNIEELPALVTIACDAVLSSKSPYRKQDPDTWENELPVSKYANNLTQLDNGVRIPPSGWKCARCDLRENLWLNLTDGSVLCGKWFFDSSGGNGHALEHYRDMGYPLAVKLGTITPDGADVYSFQEEEPVLDPHLAKHLAHFGIDMLHMHGTENGLQDNDIKLRVSEWEVIQESGTKLKPMYGPGYTGLKNLGNSCYLSSVMQAIFSIPEFQRAYVGNLPRIFDYSPLDPTQDFNTQMTKLGHGLLSGQYSKPPVKSELIEQVMKEEHKPQQNGISPRMFKAFVSKSHPEFSSNRQQDAQEFFLHLVNLVERNRIGSENPSDVFRFLVEERIQCCQTRKVRYTERVDYLMQLPVAMEAATNKDELIAYELTRREAEANRRPLPELVRAKIPFSACLQAFSEPENVDDFWSSALQAKSAGVKTSRFASFPEYLVVQIKKFTFGLDWVPKKFDVSIDMPDLLDINHLRARGLQPGEE
